From PubChem BioAssay AID1645882 (National Center for Advancing Translational Sciences (NCATS), 2021)
In all, about 16,000 compounds went through this assay and about 120 (0.75%) were called active. Inconclusive results (about 4%) are left out. The call rests on the fitted dose curve; in most records, active means well fitted inhibition curve with a large enough effect; inconclusive means small, poorly fitted or top-dose-only effect; inactive means no such curve, though single readings can be large or run the other way. The list shows a part of the results.

target: Rap guanine nucleotide exchange factor 3 (Homo sapiens) (UniProt O95398); experiment: Validation qHTS for antagonist of cAMP-regulated guanine nucleotide exchange factor 3 (EPAC1); conditions: EPAC1 Rap1B-BODIPY-GDP exchange, fluorescence; series mostly up to 150 µM; activity change, negative = inhibition: at the top concentration; further: nearly all actives have a fitted effect of over 75% in size;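 on activity change, negative = inhibition: plate controls were DMSO for no effect and ATA control for full effect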
Chain of UniProt O95398 (O95398 whole entry, looked up): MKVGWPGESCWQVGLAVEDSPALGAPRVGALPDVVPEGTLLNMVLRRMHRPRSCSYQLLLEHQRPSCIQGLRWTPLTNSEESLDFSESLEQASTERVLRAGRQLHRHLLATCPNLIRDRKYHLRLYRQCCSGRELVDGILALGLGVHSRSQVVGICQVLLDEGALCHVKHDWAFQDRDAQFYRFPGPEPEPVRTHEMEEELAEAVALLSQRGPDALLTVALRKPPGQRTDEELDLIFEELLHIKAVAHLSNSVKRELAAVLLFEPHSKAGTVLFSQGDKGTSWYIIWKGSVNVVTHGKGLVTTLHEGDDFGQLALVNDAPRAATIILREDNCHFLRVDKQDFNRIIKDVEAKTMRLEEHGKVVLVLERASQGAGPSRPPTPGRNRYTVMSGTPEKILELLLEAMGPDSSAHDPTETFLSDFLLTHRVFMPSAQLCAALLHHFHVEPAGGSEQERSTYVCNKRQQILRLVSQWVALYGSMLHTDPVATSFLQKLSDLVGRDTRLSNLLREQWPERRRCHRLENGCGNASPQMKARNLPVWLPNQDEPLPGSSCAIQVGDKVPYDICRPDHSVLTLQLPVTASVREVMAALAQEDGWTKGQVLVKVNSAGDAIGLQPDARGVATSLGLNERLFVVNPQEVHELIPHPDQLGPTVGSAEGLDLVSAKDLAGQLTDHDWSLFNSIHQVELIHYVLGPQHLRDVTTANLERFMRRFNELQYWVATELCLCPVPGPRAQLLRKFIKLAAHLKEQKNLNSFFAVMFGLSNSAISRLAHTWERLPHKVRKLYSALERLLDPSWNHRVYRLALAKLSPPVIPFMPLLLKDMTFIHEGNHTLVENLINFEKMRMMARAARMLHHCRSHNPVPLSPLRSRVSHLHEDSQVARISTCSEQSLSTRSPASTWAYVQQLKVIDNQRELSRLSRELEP
Summary of the method: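 EPAC1 (100 nM) mixed with 250 nM RAP1B-BODIPY-GDP and 50 uM GDP; compounds in concentration series, 5 min at room temperature. Fluorescence (ex 480/em 540 nm) read every 5 min for 30 min; normalized to ATA control and DMSO.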
Potency means the concentration at half of the fitted maximal effect.

SMILES | activity change, negative = inhibition | Potency
COCCn1c(=O)c(-c2cccs2)nc2cnc(OCc3ccccc3)nc21 | inactive: 14.7% | 
COc1ccc(C2COc3c(ccc(O)c3OC)C2)c(OC)c1O (stereo unspecified) | inactive: -9.01% | 
COc1cc(=O)n2c(c1C(=O)N(C)Cc1nccs1)CCN(Cc1cccc(F)c1F)CC2 | inactive: 4.97% | 
COc1ncc2nc(-c3cn(C)c4ccccc34)c(=O)n(CCC#N)c2n1 | inactive: 22.2% | 
COc1ccccc1CC(=N)N1C[C@@H]2C(=O)CCC(c3ccccc3)(c3ccccc3)[C@@H]2C1 | inactive: 6.77% | 
CNS(=O)(=O)Cc1ccc2[nH]cc(CCN(C)C)c2c1 | inactive: 18.8% | 
O=c1c(O)c(-c2ccc(O)c(O)c2)oc2cc(O)ccc12 | inactive | 
Cc1nc2cnc(N3CCN(C)CC3)nc2n(C)c1=O | inactive: 0.32% | 
Cc1nc(C)n(CC(=O)NCC2Cc3cc(-c4ccsc4)cc(Cl)c3O2)n1 (stereo unspecified) | inactive: 22% | 
CN(C)c1ncc2nc(CCc3ccccc3)c(=O)n(C3CC3)c2n1 | inactive: -21.3% | 
CC(C)C[C@@H](CO)N1CCN(Cc2cccnc2)CCC1=O | inactive: 12.4% | 
Cc1cnc(-n2ncc(C(=O)NCCN3CCOCC3)c2-c2cccs2)nc1-c1ccc(F)cc1 | inactive: 14.9% | 
COC1C[C@@H](O[C@@H]2C(C)C(=O)OC(C)C(C)C(O)C(C)C(=O)[C@@]3(CO3)CC(C)C(OC3OC(C)CC(N(C)C)C3O)C2C)OC(C)[C@@H]1O (stereo partly specified) | inactive: 13.3% | 
Cn1c(=O)c(-c2cccs2)nc2cnc(Oc3ccccc3)nc21 | inactive: 10.7% | 
O=C1CCC(c2ccccc2)(C2CCN(Cc3ccccc3)CC2)C(=O)N1 (stereo unspecified) | inactive | 
COc1ccc(C(=O)N2CCC[C@@]3(CCN(Cc4ccc(C#N)cc4)C3)C2)cc1 | inactive: 13.3% | 
CCCN1CCC(=O)N([C@H](CSc2ccccc2)CC(C)C)CC1 | inactive: 7.13% | 
CC1=C(/C=C/C(C)=C/C=C/C(C)=C/C(=O)Oc2c(C)c(C)c3c(c2C)CC[C@@](C)(CCC[C@H](C)CCC[C@H](C)CCCC(C)C)O3)C(C)(C)CCC1 | inactive: 8.34% | 
Cc1cccc(CNc2nc(-c3c(C)noc3C)nc3ccccc23)c1 | inactive: 21.3% | 
COc1ccc2c(c1)CCC1C2CC[C@@]2(C)C1CC[C@@H]2NCCCCCCN1C(=O)C=CC1=O (stereo partly specified) | inactive: -11.2% [at 75.8 µM] | 
O=S1(=O)CCOC[C@H](c2ccccc2)N1Cc1ccc(Cl)cc1Cl | inactive: -12.4% | 

SMILES | activity change, negative = inhibition | Potency
CC(=O)SCC[N+](C)(C)C | inactive: -7.24% [at 75.8 µM] | 
NC(=O)Cc1cccc(C(=O)c2ccccc2)c1N | inactive: 14.4% | 
CN(Cc1ccco1)c1ncncc1-c1ccccc1Cl | inactive: 4.12% | 
O=C(Nc1ccccc1)O[C@@H]1C[C@H]2CCC(=O)N3CC[C@@H](C1)[C@@H]23 | inactive: -0.844% | 
O=C(Nc1nc2ccccc2n1CCN1CCOCC1)c1cccc([N+](=O)[O-])c1 | inactive: 8.52% [at 75.8 µM] | 
O=C(c1ccco1)N1CCC2(CC1)CCN(c1ccncc1)CC2 | inactive: 17.7% | 
Cc1ccccc1-c1cc(NCc2cccnc2)ncn1 | inactive: 13.2% | 
CC(C)COC(=O)OCN1C(=O)CN(CCN2CC(=O)N(COC(=O)OCC(C)C)C(=O)C2)CC1=O | inactive | 
Cc1onc(-c2ccc3c(c2)OCO3)c1-c1ccc2[nH]ccc2c1 | inactive: -3.69% | 
COc1ccc(-n2c(=O)c(-c3cn(C)c4ccccc34)nc3cncnc32)cc1 | inactive: -25.1% | 
O=[N+]([O-])c1ccc2c(c1)S(=O)(=O)C=C2 | inactive: 29.5% [at 75.8 µM] | 
C=CC1=C(C(=O)O)N2C(=O)[C@@H](NC(=O)/C(=N/OCC(=O)O)c3csc(N)n3)[C@H]2SC1 (stereo in doubt) | inactive: -6.88% [at 75.8 µM] | 
Clc1ccccc1-c1ccc2ncnc(NCc3cccnc3)c2c1 | inactive: 2.4% | 
N#Cc1cccc(-c2nc3cnc(N4CCNCC4)nc3n(C3CC3)c2=O)c1 | inactive: -21.9% | 
CN(C)CCC(O)(c1ccccc1)c1ccccc1Cl (stereo unspecified) | inactive: 9.41% | 
COc1ccc(-c2cn(Cc3ccc(C)cc3)nn2)cc1 | inactive: 14.5% | 
CCN1CCCC1CNC(=O)c1cnn(-c2nccc(-c3cc4ccccc4o3)n2)c1C1CC1 (stereo unspecified) | inactive: 14.2% | 
c1ccc(C(c2ccccc2)N2CC[C@@]3(CCCNC3)C2)cc1 | inactive: 18.6% | 
N=C1N=C(N)c2cc3ccccc3cc21 | inactive: 32.8% [at 320 µM] | 
COCCn1c(=O)c(-c2cccc(C#N)c2)nc2cnc(OC)nc21 | inactive: -7.25% | 
Nc1ccc(-c2ccc3ccccc3n2)cc1 | inactive: 18.3% [at 75.8 µM] | 

SMILES | activity change, negative = inhibition | Potency
CC[C@]1(O)C[C@H]2CN(CCC3=c4ccccc4=N[C]3[C@@](C(=O)OC)(c3cc4c(cc3OC)N(C)[C@H]3[C@@](O)(C(N)=O)[C@H](O)[C@]5(CC)C=CCN6CC[C@]43[C@@H]65)C2)C1 | inactive: 22.8% | 
CCn1c(-c2cccnc2)nc2cc(NC(=O)COC)cc(C(=O)N3CC[C@@H]4CCCC[C@H]4C3)c21 | inactive: 4.7% | 
O=[N+]([O-])c1cccc(S(=O)(=O)NCCNS(=O)(=O)c2cccc([N+](=O)[O-])c2)c1 | inactive: -10.9% | 
COc1[nH]c2ccc(F)cc2c1C(=O)OCC1CCN(CCNS(C)(=O)=O)CC1 | inactive: 5.48% | 
COc1ccccc1-n1cc(CN2CCOc3ccc(CN4C[C@@H](C)O[C@@H](C)C4)cc3C2)cn1 | inactive: 0.205% | 
COc1cccc(-c2cnc(-c3ccncc3)nc2C2CCN(C(=O)Cc3csc(C)n3)CC2)c1 | inactive: 3.53% | 
CN1CCN(c2ncc3nc(-c4ccccc4)c(=O)n(CCc4ccccc4)c3n2)CC1 | inactive: -9.1% | 
Cc1cc(N)c2cc(NC(=O)Nc3ccc4nc(C)cc(N)c4c3)ccc2n1 |  | active: 28.2 µM
CCn1c(-c2ccccc2F)nc2cc(NC(C)=O)cc(C(=O)N3CCCCC3c3nccn3C)c21 (stereo unspecified) | inactive: 5.39% | 
CN(C)c1c(Cl)cc(/C=C/c2ccnc3ccccc23)cc1Br | inactive: -4.78% | 
CN(C)/N=N/c1nc[nH]c1C(N)=O | inactive | 
COc1ccc(CNc2ncnc3ccc(-c4cccc(NS(C)(=O)=O)c4)cc23)c(OC)c1 | inactive: -18.4% | 
Cc1nc2cnc(N3CCN(C)CC3)nc2n(C[C@H]2CCCO2)c1=O | inactive: 8.63% | 
CCCCCC1Nc2cc(C(F)(F)F)c(S(N)(=O)=O)cc2S(=O)(=O)N1 (stereo unspecified) | inactive: 22.1% | 
Cc1cc(C(=O)Nc2cccc(-c3nc(CNC(=O)c4cc5ccccc5[nH]4)c(C)o3)c2)c(C)o1 | inactive: 15.4% | 
CCCCOC(=O)c1ccc(N)cc1 | inactive: -2.29% | 
CCCCC[C@H](O)/C=C/[C@H]1C=CC(=O)[C@@H]1CCCCCCC(=O)O | inactive: 29.3% [at 15.3 µM] | 
NCCCCCCNS(=O)(=O)c1ccc2c(Cl)cccc2c1 | inactive: 18.5% | 
CN1CCCCCC1C(=O)NCCN1Cc2ccccc2OC(c2ccsc2)C1 (stereo unspecified) | inactive: 17.3% | 
